Experimental data: PubChem BioAssay (NCATS)
This is one part of the list. These are further read-outs of the screen, such as a control signal, another cell line or another target. No call is given for them. The list favours compounds with an active or inconclusive main result. The note in brackets gives the kind of curve behind each potency; many fits are weak.

Test: qHTS Assay for Lipid Storage Modulators (AID 1519)
Settings: Drosophila S3 cells, BODIPY lipid droplet/cell ratio, laser cytometry; measured here: cell number channel AC50; cells loaded with oleic acid
In short: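 Cells seeded at 5,000 per well were treated with compounds over a concentration series and loaded with oleic acid (400 uM, as added). Lipid droplet fluorescence (488 nm excitation, 500-530 nm channel) was read by laser-scanning cytometry and normalized to 20 uM Triacsin C.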
Tags tell the direction and shape of the fitted curve.

| SMILES | AC50 |
| --- | --- |
| COc1ccc2[nH]c(-c3ccccc3)c(CCNC(C)=O)c2c1 | 0.794 µM [rising, full curve] |
| COc1ccccc1CNc1ccnc(-c2c(C)noc2C)n1 | 0.631 µM [rising, partial curve] |
| C=CC(C1=CC(=O)C(OC)=C(OC)C1=O)c1ccccc1 (stereo not given) | 25.1 µM [falling, single point] |
| c1cncc(-c2cc(NCc3cccs3)ncn2)c1 | 20 µM [rising, partial curve, poor fit] |
| O=C(c1cnccn1)N1CCC[C@@]2(CCN(Cc3ccncc3)C2)C1 | 2.82 µM [rising, partial curve] |
| C=C1C(=O)O[C@@H]2C3OC3(C)CC/C=C(\C)CC[C@@H]12 (stereo not given in full) | 39.8 µM [rising, single point] |
| CCNc1ncc2nc(CCc3ccccc3)c(=O)n(Cc3cccc(OC)c3)c2n1 | 0.708 µM [rising, partial curve] |
| CN1CCN(c2ncnc3ccc(-c4cccnc4)cc23)CC1 | 3.16 µM [rising, full curve, poor fit] |
| Cn1cc(-c2nc3cncnc3n(Cc3ccccc3Cl)c2=O)c2ccccc21 | 7.08 µM [rising, partial curve, poor fit] |
| O=c1[nH]c2cc(Cl)ccc2c(O)c1-c1cccc(Oc2ccccc2)c1 | 31.6 µM [rising, partial curve, poor fit] |
| COc1ccc(-c2coc3ccc(OC4OC(COC(C)=O)C(OC(C)=O)C(OC(C)=O)C4OC(C)=O)c(OC(C)=O)c3c2=O)cc1 (stereo not given) | 10 µM [rising, partial curve, poor fit] |
| Cc1ccccc1-c1cc(NCc2cccnc2)ncn1 | 6.31 µM [rising, full curve, poor fit] |
| N#Cc1ccc(CN2CC3(CCN(C(=O)c4csnn4)CC3)C2)cc1 | 20 µM [rising, partial curve] |
| Cn1ccc2cc(NC(=O)Nc3cccnc3)ccc21 | 2.51 µM [rising, partial curve] |
| CNc1cc(OC)c(C(=O)N[C@@H]2CCN(Cc3ccccc3)[C@H]2C)cc1Cl | 7.08 µM [rising, full curve] |
| COCCn1c(=O)c(-c2cccc(Cl)c2)nc2cncnc21 | 3.98 µM [rising, full curve, poor fit] |
| CC(C)[C@H](CO)Nc1nc(Nc2cc(N)cc(Cl)c2)c2ncn(C(C)C)c2n1 | 20 µM [rising, partial curve] |
| COc1cc2c(cc1OC)C(c1ccc(N)cc1)=NNC(=O)C2 | 8.91 µM [rising, partial curve, poor fit] |
| CCNc1ncc2nc(-c3cccs3)c(=O)n(Cc3cccc(OC)c3)c2n1 | 0.0501 µM [rising, full curve, poor fit] |
| COc1ccccc1N1CCN(CCCCNC(=O)c2ccc(-c3ccc(C(C)=O)cc3)cc2)CC1 | 14.1 µM [rising, partial curve, poor fit] |

| SMILES | AC50 |
| --- | --- |
| CN(C)c1ncc2nc(-c3ccc(Cl)cc3)c(=O)n(C[C@H]3CCCO3)c2n1 | 1.58 µM [rising, full curve, poor fit] |
| O=C(O)c1cc(=O)cc(C(=O)O)[nH]1 | 39.8 µM [rising, single point] |
| COCCn1c(=O)c(-c2cn(C)c3ccccc23)nc2cnc(Oc3ccccc3)nc21 | 0.0794 µM [rising, full curve, poor fit] |
| Cc1cnc(CNc2ncnc3ccc(-c4ccc(N(C)C)cc4)cc23)cn1 | 0.794 µM [rising, full curve] |
| COc1ccc(Oc2ncc3nc(C)c(=O)n(-c4ccc(OC)cc4)c3n2)cc1 | 2.51 µM [rising, partial curve] |
| CCOC(=O)C1=C(O)C(=O)N(Cc2ccccc2)C1 | 14.1 µM [rising, partial curve, poor fit] |
| N=C(N)SCCc1ccc(OCc2ccc([N+](=O)[O-])cc2)cc1 | 7.94 µM [rising, full curve, poor fit] |
| CNc1nc(-c2c(C)noc2C)nc2ccccc12 | 0.2 µM [rising, partial curve] |
| CN1CCN(c2ncc3nc(-c4cn(C)c5ccccc45)c(=O)n(-c4ccccc4)c3n2)CC1 | 1.58 µM [rising, partial curve] |
| COc1cccc(Cn2c(=O)c(-c3cccs3)nc3cnc(N4CCOCC4)nc32)c1 | 2.51 µM [rising, full curve, poor fit] |
| CN(Cc1ccco1)c1ncncc1-c1cccnc1 | 0.251 µM [rising, full curve] |
| CNC(=O)[C@H]1O[C@H](n2cnc3c(NCc4cccc(I)c4)ncnc32)[C@@H](O)[C@@H]1O | 15.8 µM [rising, partial curve, poor fit] |
| CN(C)C/C=C(\c1ccc(Br)cc1)c1cccnc1 | 11.2 µM [rising, partial curve, poor fit] |
| C=C1C(=O)OC2C[C@@]3(C)CCCC(=C)[C@@H]3CC12 (stereo not given in full) | 12.6 µM [rising, full curve] |
| COc1ncc2nc(-c3cc(F)cc(F)c3)c(=O)n(C[C@H]3CCCO3)c2n1 | 0.0562 µM [rising, full curve, poor fit] |
| Cc1noc(C)c1-c1ccc2ncnc(NCc3cccs3)c2c1 | 3.55 µM [rising, partial curve] |
| COc1ccc(C(=O)N2CCC3(CCN(C(=O)Nc4ccccc4)CC3)CC2)cc1 | 1 µM [rising, full curve, poor fit] |
| COc1ccc(CNc2ccnc(-c3ccc(N(C)C)cc3)n2)c(OC)c1 | 2.51 µM [rising, partial curve] |
| CN(C)C(=O)c1ccc(-c2ccc3ncnc(NCCN4CCOCC4)c3c2)cc1 | 5.62 µM [rising, full curve] |
| OCCNCCCOc1cccc(Cl)c1Cl | 0.501 µM [falling, partial curve, poor fit] |
